{"source": "PubChem BioAssay AID588453", "about": "(National Center for Advancing Translational Sciences (NCATS), 2011)", "note": "Among all 390,000 compounds or so, about 4,000 (1%) were called active. This list was built around the results that the source calls inconclusive (neither active nor inactive); the mix of calls is not that of the screen. Calls come from the whole dose curve; as a rule, active = well fitted inhibition curve with a large enough effect; inconclusive = small, poorly fitted or top-dose-only effect; inactive = no such curve, though single readings can be large or run the other way. Potencies beside an inconclusive call are fits to weak or partial responses and may not hold up. Potency is the fitted concentration of half-maximal effect; tags give direction and shape of the fitted curve."}
{"molecular_target": "Thioredoxin reductase 1, cytoplasmic (Rattus norvegicus) (UniProt O89049)", "sequence (O89049 whole entry, looked up)": "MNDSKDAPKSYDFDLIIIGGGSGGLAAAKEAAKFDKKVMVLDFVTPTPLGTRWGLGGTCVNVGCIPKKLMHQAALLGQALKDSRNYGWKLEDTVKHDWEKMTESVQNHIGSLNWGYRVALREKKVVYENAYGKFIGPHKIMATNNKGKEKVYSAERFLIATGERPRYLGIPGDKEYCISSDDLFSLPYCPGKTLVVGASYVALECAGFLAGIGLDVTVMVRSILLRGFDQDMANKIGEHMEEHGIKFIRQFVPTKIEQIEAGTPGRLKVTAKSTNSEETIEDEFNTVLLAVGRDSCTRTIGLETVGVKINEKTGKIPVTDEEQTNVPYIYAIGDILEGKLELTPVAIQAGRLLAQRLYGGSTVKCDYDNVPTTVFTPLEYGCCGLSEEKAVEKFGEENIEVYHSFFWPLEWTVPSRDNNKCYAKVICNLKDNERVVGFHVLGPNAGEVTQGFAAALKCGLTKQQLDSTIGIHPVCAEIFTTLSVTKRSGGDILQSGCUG", "test": "qHTS Assay for Inhibitors of Mammalian Selenoprotein Thioredoxin Reductase 1 (TrxR1): qHTS; note: nearly all actives have a fitted effect of over 65% in size", "details": "recombinant rTrxR1, NADPH fluorescence consumption, selenite substrate; series mostly up to 114 µM", "how_it_was_run": "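Rat TrxR1 (90 nM in the dispensed reagent) was pre-reduced with 400 uM NADPH for 5 min at room temperature, then incubated with compound for 15 min. After 400 uM selenite was added, NADPH fluorescence (Ex 340/Em 450 nm) was followed for 8 min.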"}
{"smiles": "CCCC1OC23CCCCC2C(C#N)(C(=N)O3)C1(C#N)C#N", "note": "(stereo not drawn)", "Potency": "inconclusive: 89.1 µM [inhibitor, partial curve, poor fit]"}
{"smiles": "COc1ccc(Br)cc1CNC(=O)C(C)n1nc(C)n2c(cc3occc32)c1=O", "note": "(stereo not drawn)", "Potency": "inactive"}
{"smiles": "Cc1c(Cl)cccc1-n1c(CCC(=O)O)ccc1-c1cccs1", "Potency": "inconclusive: 89.1 µM [inhibitor, single point]"}
{"smiles": "CCC(C(=O)N1CCN(c2cc(Cl)ccc2C)CC1)n1nc(C)n2c(cc3occc32)c1=O", "note": "(stereo not drawn)", "Potency": "inconclusive: 22.4 µM [inhibitor, single point]"}
{"smiles": "Cc1ccc(C)c(S(=O)(=O)N(C(=O)c2ccncc2)c2ccc(OC(=O)c3ccncc3)cc2)c1", "Potency": "inconclusive: 15.8 µM [inhibitor, partial curve]"}
{"smiles": "COc1ccccc1C1Nc2cccc3cccc(c23)N1", "Potency": "inconclusive: 39.8 µM [inhibitor, partial curve]"}
{"smiles": "Cc1cc(S(=O)(=O)N2CCN(CC(=O)N(C)Cc3ccccc3)CC2)ccc1Br", "Potency": "inactive"}
{"smiles": "O=C(NC1CCCCC1)C(c1ccncc1)N(Cc1ccc2c(c1)OCO2)C(=O)C(F)(F)F", "note": "(stereo not drawn)", "Potency": "inconclusive: 39.8 µM [inhibitor, partial curve, poor fit]"}
{"smiles": "Nc1nc(-c2ccco2)nn1C(=O)c1ccc([N+](=O)[O-])cc1", "Potency": "inconclusive: 79.4 µM [inhibitor, partial curve, poor fit]"}
{"smiles": "CC(=O)Nc1ccn(C2OC(C(COC(C)=O)NC(=O)C(Cc3ccccc3)NC(=O)OC(C)(C)C)C(OC(C)=O)C2OC(C)=O)c(=O)n1", "note": "(stereo not drawn)", "Potency": "inactive"}
{"smiles": "CN1CCc2c(c3c(n2C)CCN(C)C3c2ccc(F)cc2)C1c1ccc(F)cc1", "note": "(stereo not drawn)", "Potency": "inconclusive: 17.8 µM [inhibitor, full curve]"}
{"smiles": "CCOC(=O)c1c(S(=O)(=O)N2CCCC(C(=O)N3CCN(c4ccc(F)cc4)CC3)C2)c(C)n(C)c1C", "note": "(stereo not drawn)", "Potency": "inactive"}
{"smiles": "Cc1[nH]n(-c2ccccc2)c(=O)c1C=NCC1CCCO1", "note": "(stereo not drawn)", "Potency": "inconclusive: 25.1 µM [inhibitor, single point]"}
{"smiles": "C(=C\\c1ccccc1)/CSc1nnc(-c2cccnc2)n1Cc1ccco1", "Potency": "inconclusive: 28.2 µM [inhibitor, single point]"}
{"smiles": "O=C(O)/C=C\\C(=O)Nc1cccc(NC(=O)c2ccccc2)c1", "Potency": "inconclusive: 39.8 µM [inhibitor, partial curve, poor fit]"}
{"smiles": "O=C1N/C(=C/c2ccc(N3CCOCC3)o2)C(=O)N1c1cccc(Cl)c1", "Potency": "active: 3.16 µM"}
{"smiles": "CCCC(=O)Nc1c2c(nn1-c1ccc(C)cc1C)CSC2", "Potency": "inconclusive: 31.6 µM [inhibitor, partial curve, poor fit]"}
{"smiles": "Cc1ccc(C)n1-c1sccc1C(=O)O", "Potency": "active: 50.1 µM"}
{"smiles": "COc1ccc(/C=C(\\C#N)C(=O)NCc2ccccc2)cc1", "Potency": "inconclusive: 79.4 µM [inhibitor, partial curve, poor fit]"}
{"smiles": "Nc1ccccc1Nc1cc(-c2ccccc2)nn1-c1ccccc1", "Potency": "inconclusive: 89.1 µM [inhibitor, single point]"}
{"smiles": "CN(C1=C(N2CCCCC2)C(=O)c2ccccc2C1=O)c1ccccc1", "Potency": "inconclusive: 31.6 µM [inhibitor, partial curve]"}
{"smiles": "COc1ccc2c(c1)CCc1c(C(=O)NC3CCCCC3)noc1-2", "Potency": "inconclusive: 6.31 µM [inhibitor, partial curve, poor fit]"}
{"smiles": "Cc1n[nH]c(C)c1NC(=O)CN1CCN(S(=O)(=O)c2ccc(C(F)(F)F)cc2)CC1", "Potency": "inactive"}
{"smiles": "Cc1ccc(/C=N/Nc2cccc3cccnc23)c(O)c1", "Potency": "inconclusive: 44.7 µM [inhibitor, partial curve, poor fit]"}
{"smiles": "COc1ccc(-c2nc(CS(=O)CC(=O)N3CCCC3)c(C)o2)cc1", "note": "(stereo not drawn)", "Potency": "inconclusive: 25.1 µM [inhibitor, partial curve]"}
{"smiles": "Cc1cc2oc(=O)c(CC(=O)NCCCO)c(C)c2c2occ(C(C)(C)C)c12", "Potency": "inconclusive: 89.1 µM [inhibitor, single point]"}
{"smiles": "Cc1ccc(-n2c3nc(=O)n(C)c(=O)c-3cc3ccccc32)cc1", "Potency": "inactive"}
{"smiles": "CCC1c2ccc(C)n2CCN1C(=O)Nc1ccccc1OC", "note": "(stereo not drawn)", "Potency": "inconclusive: 3.55 µM [inhibitor, partial curve, poor fit]"}
{"smiles": "CCOC(=O)c1c(NC(C)=O)sc2c(O)c(Br)cc(Br)c12", "Potency": "inconclusive: 44.7 µM [inhibitor, partial curve, poor fit]"}
{"smiles": "Cc1ccc(Nc2nc(N)nc(CN3CCN(C(=O)c4ccco4)CC3)n2)cc1Cl", "Potency": "inconclusive: 11.2 µM [inhibitor, full curve]"}
{"smiles": "Cc1cccc(/N=C/c2c(O)[nH]c3ccccc23)n1", "Potency": "inconclusive: 6.31 µM [inhibitor, single point]"}
{"smiles": "Cc1ccc(CSc2ncnc3c2cnn3-c2ccccc2)cc1", "Potency": "inactive"}
{"smiles": "CCOC(=O)/C(=C\\c1ccc([N+](=O)[O-])o1)NC(=O)c1ccccc1", "Potency": "active: 7.94 µM"}
{"smiles": "O=C(CCl)NC(=O)NC12CC3CC(CC(C3)C1)C2", "Potency": "active: 14.1 µM"}
{"smiles": "Cc1c(C(=O)NCC2CCCO2)oc2ccc(Br)cc12", "note": "(stereo not drawn)", "Potency": "inconclusive: 89.1 µM [inhibitor, single point]"}
{"smiles": "Clc1cccc(C2Nc3cccc4cccc(c34)N2)c1", "Potency": "active: 25.1 µM"}
{"smiles": "CCn1nc(C)cc1C(=O)Sc1ccc(Cl)cc1Cl", "Potency": "inconclusive: 12.6 µM [inhibitor, partial curve]"}
{"smiles": "O=S(=O)(c1ccc2[nH]c3c(c2c1)CCCC3)N1CCCCC1", "Potency": "inconclusive: 79.4 µM [inhibitor, single point]"}
{"smiles": "O=C1CCN(CCc2ccccc2)CCN1[C@H](CSc1ccccc1)Cc1ccccc1", "Potency": "inconclusive: 79.4 µM [inhibitor, single point]"}
{"smiles": "CC(C)CN1C(=O)/C(=C/c2cccs2)NC1=S", "Potency": "active: 14.1 µM"}
{"smiles": "Clc1ccccc1OCCCCN1CCNCC1", "Potency": "inactive"}
{"smiles": "CN(C)S(=O)(=O)N1CCC(c2ccc(F)cc2)C(COc2ccc3c(c2)OCO3)C1", "note": "(stereo not drawn)", "Potency": "inactive"}
{"smiles": "CC(C)c1nnc(NC(=O)CCS(=O)(=O)c2nc(-c3cccs3)cc(C(F)(F)F)n2)s1", "Potency": "active: 35.5 µM"}
{"smiles": "CSc1sccc1/C=C(/C#N)C(=O)c1ccco1", "Potency": "inconclusive: 22.4 µM [inhibitor, partial curve, poor fit]"}
{"smiles": "COc1ccccc1NC(=O)CCN1C(=O)/C(=C\\c2cc(OC)c(OC)c(OC)c2)SC1=S", "Potency": "inconclusive: 89.1 µM [inhibitor, partial curve, poor fit]"}
{"smiles": "CCO[C@@H]1OC(C(N)=O)=C[C@H](C(C)(C)C)[C@H]1CCCO", "Potency": "inconclusive: 39.8 µM [inhibitor, single point]"}
{"smiles": "CC(C)c1ccc(CN(C(=O)/C=C/c2ccco2)C2CCS(=O)(=O)C2)cc1", "note": "(stereo not drawn)", "Potency": "active: 14.1 µM"}
{"smiles": "CC(=O)c1ccc(OCc2cc(C(=O)N(C)C(C)c3ccon3)no2)cc1", "note": "(stereo not drawn)", "Potency": "inconclusive: 89.1 µM [inhibitor, single point]"}
{"smiles": "O=C(CSc1nnc(-c2ccco2)n1Cc1ccccc1)c1ccccc1", "Potency": "inactive"}
{"smiles": "CNC(=S)NNC(=O)c1ccccc1Br", "Potency": "inactive"}
{"smiles": "CCc1nnc(NC(=O)/C=C/c2ccc(C)o2)s1", "Potency": "inconclusive: 50.1 µM [inhibitor, partial curve]"}
{"smiles": "Oc1ccc2ccccc2c1CNc1ccc(Br)cc1", "Potency": "active: 28.2 µM"}
{"smiles": "O=C(NC1CCCC1)C(c1cccs1)N(C(=O)c1ccco1)c1ccc2c(c1)OCO2", "note": "(stereo not drawn)", "Potency": "inconclusive: 25.1 µM [inhibitor, single point]"}
{"smiles": "C=CC(=O)N1C/C(=C/c2ccc(Cl)cc2)C(=O)/C(=C\\c2ccc(Cl)cc2)C1", "Potency": "inconclusive: 56.2 µM [inhibitor, partial curve, poor fit]"}
{"smiles": "N#Cc1c(SCC(=O)Nc2nc3ccc(Br)cc3s2)sc2c(O)cc(=O)[nH]c12", "Potency": "inconclusive: 15.8 µM [inhibitor, full curve]"}
{"smiles": "COc1ccc(-c2nc(CC(=O)O)cs2)cc1", "Potency": "inactive"}
{"smiles": "Nc1c(/C=C2/C=CC(=O)C(O)=C2)c(=O)nc2sc(CC(=O)N3CCOCC3)nn12", "Potency": "inconclusive: 79.4 µM [inhibitor, single point]"}
{"smiles": "CCc1sc(C(=O)NCCc2ccc(S(N)(=O)=O)cc2)cc1C", "Potency": "inconclusive: 89.1 µM [inhibitor, single point]"}
{"smiles": "FC(F)(F)c1ccc(Cl)c(-n2c(-c3cc(-c4ccco4)[nH]n3)n[nH]c2=S)c1", "Potency": "inconclusive: 15.8 µM [inhibitor, partial curve, poor fit]"}
{"smiles": "O=C(NC1CCCCC1)C(c1cccnc1)N(C(=O)CCl)c1ccc(F)cc1", "note": "(stereo not drawn)", "Potency": "active: 14.1 µM"}
{"smiles": "Cc1sc(NC(=O)c2ccco2)c(CN2CCCCC2)c1C", "Potency": "inactive"}
{"smiles": "O=C(Nc1ccc(Br)cn1)c1ccc(Cl)s1", "Potency": "inconclusive: 14.1 µM [inhibitor, full curve]"}
{"smiles": "O=C(COc1ccc(S(=O)(=O)N2CCOCC2)cc1)NCC1CCCO1", "note": "(stereo not drawn)", "Potency": "inactive"}
{"smiles": "O=c1cc(N2CCN(Cc3ccccc3)CC2)[nH]c(=O)n1-c1ccc(Br)cc1", "Potency": "inconclusive: 44.7 µM [inhibitor, partial curve]"}
{"smiles": "COc1ccc(-c2ccc(-c3nc4ccc(C)cn4c3NC3CCCCC3)cc2OC)cc1", "Potency": "inconclusive: 31.6 µM [inhibitor, single point]"}
{"smiles": "COCCN1CCN(C(=O)C2CCC(=O)N(CCCc3ccccc3)C2)CC1", "note": "(stereo not drawn)", "Potency": "inconclusive: 89.1 µM [inhibitor, single point]"}
{"smiles": "CC(C)n1c(SCC(=O)NCc2ccco2)nnc1C1CC1", "Potency": "inconclusive: 89.1 µM [inhibitor, single point]"}
{"smiles": "CC(C)(C)NC(=O)CCN(/N=C/c1ccc([N+](=O)[O-])o1)C1=NS(=O)(=O)c2ccccc21", "Potency": "inconclusive: 56.2 µM [inhibitor, single point]"}
